T1: FcγRIIa type R extracellular domain with C-terminal His tag (human, UniProt P12318 34-217)
T1 chain: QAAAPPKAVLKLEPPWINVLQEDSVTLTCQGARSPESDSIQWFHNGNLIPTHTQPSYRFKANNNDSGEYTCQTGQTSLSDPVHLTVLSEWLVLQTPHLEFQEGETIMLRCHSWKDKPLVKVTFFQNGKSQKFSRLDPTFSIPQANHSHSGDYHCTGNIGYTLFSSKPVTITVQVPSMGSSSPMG

T2: FcγRIIa type H extracellular domain with C-terminal His tag (human, UniProt P12318 34-217)
T2 construct: extracellular domain; also called FcγRIIaH; FcgRIIaH; not shown: His tag attached to the C terminus
T2 sequence (looked up): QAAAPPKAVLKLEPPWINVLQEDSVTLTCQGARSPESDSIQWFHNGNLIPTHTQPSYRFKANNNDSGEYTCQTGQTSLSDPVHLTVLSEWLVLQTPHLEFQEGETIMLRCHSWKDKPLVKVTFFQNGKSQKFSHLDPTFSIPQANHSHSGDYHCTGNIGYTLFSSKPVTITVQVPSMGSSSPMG


What was measured:
[1] = target: T1, FcγRIIa type R extracellular domain …; assay: SPR (Biacore T100), antibody captured by Protein A, FcγR as analyte
[2] = target: T3, FcγRIa extracellular domain with C-terminal His tag (human, UniProt P12314 16-292); assay: as above
T3 construct: also called FcgRIa; not shown: His tag attached to the C terminus

[3] = target: T2, FcγRIIa type H extracellular domain …; assay: SPR (Biacore T100); * KD calculated with Equation 2 because binding was weak
[4] = target: T4, FcγRIIIa (allotype not stated in Reference Example 4) (human, UniProt P08637 part only); assay: as above
T4 construct: extracellular domain; not shown: His tag attached to the C terminus
T4 sequence (P08637 17-208): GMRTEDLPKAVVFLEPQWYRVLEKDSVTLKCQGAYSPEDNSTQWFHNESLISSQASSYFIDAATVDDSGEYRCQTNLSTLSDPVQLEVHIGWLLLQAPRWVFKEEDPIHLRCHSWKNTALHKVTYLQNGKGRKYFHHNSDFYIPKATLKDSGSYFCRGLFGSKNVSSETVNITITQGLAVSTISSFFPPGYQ

T3 sequence (P12314 16-292): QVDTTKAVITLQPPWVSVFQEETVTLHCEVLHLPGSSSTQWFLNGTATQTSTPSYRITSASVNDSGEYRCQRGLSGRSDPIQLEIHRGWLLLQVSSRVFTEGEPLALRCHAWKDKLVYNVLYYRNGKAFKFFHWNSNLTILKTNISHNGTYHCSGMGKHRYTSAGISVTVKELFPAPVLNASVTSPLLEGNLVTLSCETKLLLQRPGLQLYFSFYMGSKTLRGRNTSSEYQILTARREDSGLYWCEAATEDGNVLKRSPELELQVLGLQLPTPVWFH

Row | Kd [1] | Kd [2] | Kd [3] | Kd [4] | Binder
1 | 12 µM | 0.0073 µM | 56 µM | 51 µM | IgG1-v1 (IL6R-G1d-v1/IL6R-L) (antibody, IL6R-G1d with P238D (EU numbering)) heavy: QVQLQESGPGLVKPSETLSLTCAVSGHSISHDHAWSWVRQPPGEGLEWIGFISYSGITNYNPSLQGRVTISRDNSKNTLYLQMNSLRAEDTAVYYCARSLARTTAMDYWGEGTLVTVSS[skipping human IgG1 constant region with P238D (EU numbers)] light: DIQMTQSPSSLSASVGDRVTITCRASQDISSYLNWYQQKPGKAPKLLIYYTSRLHSGVPSRFSGSGSGTDFTFTISSLQPEDIATYYCQQGNTLPYTFGQGTKVEIKRTVAAPSVFIFPPSDEQLKSGTASVVCLLNNFYPREAKVQWKVDNALQSGNSQESVTEQDSKDSTYSLSSTLTLSKADYEKHKVYACEVTHQGLSSPVTKSFNRGEC
2 |  | 0.00046 µM |  |  | IgG1-v2 (IL6R-G1d-v2/IL6R-L) (antibody, IgG1 Fc variant) heavy: QVQLQESGPGLVKPSETLSLTCAVSGHSISHDHAWSWVRQPPGEGLEWIGFISYSGITNYNPSLQGRVTISRDNSKNTLYLQMNSLRAEDTAVYYCARSLARTTAMDYWGEGTLVTVSS[skipping human IgG1 constant region with L328E (EU numbers)] light: DIQMTQSPSSLSASVGDRVTITCRASQDISSYLNWYQQKPGKAPKLLIYYTSRLHSGVPSRFSGSGSGTDFTFTISSLQPEDIATYYCQQGNTLPYTFGQGTKVEIKRTVAAPSVFIFPPSDEQLKSGTASVVCLLNNFYPREAKVQWKVDNALQSGNSQESVTEQDSKDSTYSLSSTLTLSKADYEKHKVYACEVTHQGLSSPVTKSFNRGEC
